Reference: US20050187204A1, “Medicinal composition for lowering blood lipid level” (SANKYO COMPANY, LIMITED, priority 2002, published 2005)
Entries with a single value are a further part of the results.

Test: Evaluation studies of blood lipid levels in Beagle dogs (serum total cholesterol and LDL after 11 days of oral dosing)
Format: in vivo, Male Beagle dogs
Conditions: Table 1, relative value, pre-treatment average (2 weeks and 1 week before) = 100, oral capsule once daily, mean of 5 dogs, mg/kg: ursodeoxycholic acid 100, simvastatin 1, atorvastatin calcium 2

Structure (SMILES)	Change in serum lipid level (total cholesterol or LDL) (4 days after treatment) [%]	Change in serum lipid level (total cholesterol or LDL) (8 days after treatment) [%]	Change in serum lipid level (total cholesterol or LDL) (12 days after treatment) [%]
C[C@H](CCC(=O)O)[C@H]1CC[C@H]2[C@@H]3[C@@H](O)C[C@@H]4C[C@H](O)CC[C@]4(C)[C@H]3CC[C@]12C [Ursodeoxycholic acid, ursodeoxycholic acid]	100.3	99.4	95.4
CC(C)c1c(C(=O)Nc2ccccc2)c(-c2ccccc2)c(-c2ccc(F)cc2)n1CC[C@H](O)C[C@@H](O)CC(=O)O [Atorvastatin calcium, (3R,5S)-7-[2-(4-fluorophenyl)-5-(1-methylethyl)-3-phenyl-4-phenylaminocarbonyl-1H-pyrrol-1-yl]-3,5-dihydroxyheptanoic acid]	90.2	94.1	91.7
CCC(C)(C)C(=O)O[C@H]1C[C@@H](C)C=C2C=C[C@H](C)[C@H](CC[C@@H]3C[C@@H](O)CC(=O)O3)[C@H]21 [Simvastatin, (+)-(1S,3R,7S,8S,8aR)-1,2,3,7,8,8a-hexahydro-3,7-dimethyl-8-[2-[(2R,4R)-tetrahydro-4-hydroxy-6-oxo-2H-pyran-2-yl]ethyl]-1-naphthyl 2,2-dimethylbutyrate]	94.8	94.1	92.4
